# Test results as given in the supplement of paper PMC3334620.
# In all, about 33,000 sequences were measured (“E-score (-0.5 to 0.5)”: median about -0.012, highest 2% from about 0.27 on). This is one part of the list.
# Biological target: T1, Vhr1 (UniProt P40522)
# T1 sequence: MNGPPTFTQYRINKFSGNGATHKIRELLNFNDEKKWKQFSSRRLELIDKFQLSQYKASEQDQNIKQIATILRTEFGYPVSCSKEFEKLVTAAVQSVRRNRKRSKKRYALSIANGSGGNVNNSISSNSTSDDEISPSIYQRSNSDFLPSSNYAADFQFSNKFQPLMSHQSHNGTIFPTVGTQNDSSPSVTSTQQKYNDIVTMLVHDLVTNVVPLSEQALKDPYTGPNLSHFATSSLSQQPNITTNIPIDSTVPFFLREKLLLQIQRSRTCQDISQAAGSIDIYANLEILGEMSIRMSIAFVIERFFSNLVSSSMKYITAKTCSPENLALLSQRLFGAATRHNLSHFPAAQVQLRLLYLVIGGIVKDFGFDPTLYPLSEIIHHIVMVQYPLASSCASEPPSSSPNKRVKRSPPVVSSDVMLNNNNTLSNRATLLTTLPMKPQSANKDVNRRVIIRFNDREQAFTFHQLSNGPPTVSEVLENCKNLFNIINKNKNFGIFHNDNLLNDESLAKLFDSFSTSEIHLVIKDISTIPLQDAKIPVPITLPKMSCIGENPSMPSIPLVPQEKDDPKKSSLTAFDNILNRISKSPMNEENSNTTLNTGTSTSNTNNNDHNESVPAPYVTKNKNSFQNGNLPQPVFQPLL
# Test: PBM E-score (8-mer binding enrichment) (E-score (-0.5 to 0.5)); higher = stronger / more preferred TF binding; most listed sequences are background and not binding sites
# Details: protein concentration: 200 nM; construct: GST-full length
# In short: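 GST-tagged yeast TFs (full-length or DNA-binding domain) were made by PURExpress in vitro transcription/translation and applied at about 100-200 nM to universal all-10-mer Agilent arrays. The arrays were made double-stranded by primer extension, on fresh or once-stripped slides. Bound protein was detected with fluorescent anti-GST, and scans were normalised with masliner. Each ungapped eight-base word, pooled with its reverse complement, received an E-score (modified Wilcoxon-Mann-Whitney statistic) from the Universal PBM Analysis Suite.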
row,Sequence,PBM E-score
1,ATGCCAAG,-0.0266
2,CCAACTCG,0.154
3,ACGGGTTA,-0.255
4,CCTGCCGA,-0.0773
5,TCCATAGA,-0.0605
6,GTACACTA,0.0675
7,CTATGGCC,-0.123
8,TACCCAAA,-0.031
9,CCGCAAAC,0.182
10,GCACGCGA,0.0992
11,CTAAGTCC,-0.151
12,GGGGTGAC,0.0669
13,CTGAGTTC,0.0461
14,CTCACTCC,-0.00221
15,CATATTTC,-0.0396
16,CCGATTGC,0.14
17,CGTTCCCA,-0.132
18,CAACAATG,0.168
19,CCCCATAG,-0.0409
20,GTGGACAC,0.0973
21,AGCATCAG,0.0568
22,ATAGTCCA,0.121

row,Sequence,PBM E-score
1,CCGTCGAA,-0.119
2,ACGAGGTA,0.048
3,AAATATTA,0.134
4,ATCAATCC,0.1
5,ACACTATG,0.292
6,ACTTGTAT,0.13
7,GGGCAACC,-0.168
8,AGCTCAAG,-0.129
9,CTATAGGC,-0.243
10,CTTGAAAG,-0.189
11,CCACCGAG,0.216
12,GCGCGAGC,-0.032
13,CATGAAGA,-0.0351
14,AAGGGAGT,-0.0334
15,GTCCTATA,-0.265
16,AGACGAAG,-0.0754
17,AAATGCAA,-0.233
18,CGACGATA,0.0215
19,AACGTGGA,-0.0551
20,ACGCAAAG,-0.123
21,AAAGTCCT,-0.203
22,GTGTCTAA,-0.139

row,Sequence,PBM E-score
1,ACGACTTG,-0.0454
2,CTGCTTAC,-0.119
3,AGCCCACG,-0.0366
4,ACAACAGC,-0.0783
5,AGTTCTGA,-0.201
6,CGCGTATC,0.143
7,AGGTAATC,0.104
8,ATTCCGGG,0.0193
9,AAAGGGCA,-0.0157
10,ATAAGACA,-0.0876
11,CAACTTCA,-0.138
12,TGGGAACA,0.0218
13,GCACTACC,-0.0106
14,GAATGAAC,-0.0436
15,AGGTAACA,0.109
16,GCAATCCC,0.0389
17,AAGCAGCG,0.0391
18,ACAGTCGA,-0.0382
19,AAAAGAAA,-0.312
20,CAGAACGC,-0.0689
21,GAACCCGA,0.0438
22,CCCTCGGC,-0.0968

row,Sequence,PBM E-score
1,GAGTCTCC,0.254
2,CAAATCTA,-0.0242
3,GCAAACAC,0.0615
4,CTGTTCTC,-0.0559
5,CGCGAACC,-0.035
6,CGACAAAG,-0.171
7,AAGTTTTC,-0.168
8,ATTCCTGC,0.00809
9,TCACTTAA,0.0704
10,ACCATTAG,0.0787
11,GTAATACA,0.185
12,ATATTGAC,0.00562
13,AAGCCCCT,-0.186
14,GTTGTCAA,-0.031
15,GGAATACC,-0.226
16,AGAAAACC,-0.0835
17,GCTATTAA,0.0113
18,CCCGGTCA,0.13
19,GCACATGA,0.111
20,GACGCGGC,0.109
